# Test results taken from PubChem BioAssay AID1963576 (National Center for Advancing Translational Sciences (NCATS), 2024).
# Among all 46,000 compounds or so, about 60 (0.1%) were called active. Roughly 3% stayed inconclusive and do not appear here. Calls come from the whole dose curve; as a rule, active = well fitted inhibition curve with a large enough effect; inconclusive = small, poorly fitted or top-dose-only effect; inactive = no such curve, though single readings can be large or run the other way. The list shows a part of the results.
# Assay: Primary qHTS assay for Inhibitors of ovarian cancer metastasis using an organotypic tumor microenvironment (TME) model.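 For activity change, negative = inhibition: plate controls were DMSO wells for no effect and tomatine positive control wells for full effect.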 Note: nearly all actives have a fitted effect of over 65% in size.
# Details: SKOV3ip1-GFP adhesion/invasion on 3D omental model, fluorescence; series mostly up to 45.8 µM; activity change, negative = inhibition: at the top concentration
# Outline: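 Adhesion/invasion was scored as fixed GFP-labeled SKOV3ip1 cell counts (488/509 nm), normalized to DMSO and tomatine controls. Cancer cells in serum-free medium, with four compound doses (0.36-46 umol/L), sat 2 hr at RT then 16 hr at 37 C on a 48 hr fibroblast/mesothelial/ECM culture.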
SMILES,"activity change, negative = inhibition",outcome
CCCCn1c(COc2cccc(OC)c2)nc2ccccc21,inactive: 0.167%,
COc1ccc(CCN2CC(C(=O)NCCc3ccc(C)cc3)CC2=O)cc1OC (centres undefined),inactive: 0.634%,
COc1ccc(Cl)cc1NC(=O)Cn1cc(C(=O)c2ccncc2)c(=O)c2cc(C)ccc21,inactive: 6.58%,
CC(C)NC(=O)c1ccc(-n2c(-c3ccccc3)cc3c2CCCCC3)cc1,inactive: -1.66%,
Cc1ccccc1C(=O)Nc1cccc(C(=O)OCc2cc(=O)n3c4c(sc3n2)CCCC4)c1,inactive: 3.12%,
O=C(CSc1nc2ccccc2n1Cc1ccccc1F)NCc1ccccc1,inactive: 4.78%,
Cc1ccc(NC(=O)N(Cc2cn(C)c3ccccc23)C2CCCCC2)cc1C,,inactive
COc1cc2nc(SCc3cccc(Cl)c3)n3nc(CCn4nc(C)cc4C)nc3c2cc1OC,,inactive
Cn1nnc2c(N3CCN(c4ccccc4F)CC3)ncnc21,inactive: 9.82%,
CCOc1ccc(-c2cc(OC(=O)c3ccccc3)c3c(C)oc(C)c3c(=O)c2)cc1,inactive: 4.53%,
CCC(Sc1nc2cc(OC)c(OC)cc2c(=O)n1CCc1ccc(Cl)cc1)C(=O)NCCOC (centres undefined),inactive: 4.45%,
Cc1cc(C)cc(NC(=O)CCc2c(C)nn(-c3ccc(N4CCCC4)nn3)c2C)c1,inactive: 0.239%,
COc1cc2c(cc1OC)C(COc1ccc(F)cc1)N(C(=O)Cc1ccc(F)cc1)CC2 (centres undefined),inactive: -4.42%,
Cc1ccc2oc3c(c(=O)c2c1)C(c1ccccc1F)N(CCCN1CCOCC1)C3=O (centres undefined),inactive: 9.19%,
COc1ccc(N(CC(=O)NCCc2ccccc2)S(=O)(=O)c2ccccc2)c(OC)c1,inactive: 9.09%,
CCCCNC(=O)CSc1nc2cc3c(cc2c(=O)n1CCCCCC(=O)NCc1ccc2c(c1)OCO2)OCO3,inactive: 15.1%,
Cc1ccc(-n2c(SCC(=O)NCc3ccc(F)cc3)nc3c([nH]c4ccccc43)c2=O)cc1,inactive: -0.956%,
Cc1ccc(CN(C(=O)COc2cccc([N+](=O)[O-])c2)c2ccccn2)cc1,inactive: 5.1%,
CCOC(=O)C1CCN(c2ncnc3c2nnn3C)CC1,inactive: -9.89%,
Cc1ccc(Nc2c(-c3ccncc3)nc3ccc(C)cn23)cc1,inactive: -9.33%,
CCCS(=O)(=O)c1ncc(Cl)c(C(=O)Nc2scc(-c3ccccc3)c2C(=O)OCC)n1,inactive: 3.76%,
Cc1cc(C)cc(N2CCn3c2nc2c3c(=O)n(Cc3ccc(Cl)cc3)c(=O)n2C)c1,,inactive
CC(C)c1ccc(CNc2nc(-c3ccco3)nn2S(=O)(=O)c2ccc3ccccc3c2)cc1,inactive: -3.01%,
COc1ccc(CNC(=O)Cn2nnc(-c3ccc(S(C)(=O)=O)cc3)n2)cc1,,inactive

SMILES,"activity change, negative = inhibition",outcome
O=S(=O)(c1ccccc1)c1nc(-c2ccc(Cl)cc2Cl)oc1N1CCCCCC1,inactive: -12.2%,
CCC1CCCCN1CC(=O)N1CCCc2c1c(=O)oc1ccc(OCc3ccccc3)cc21 (centres undefined),inactive: -21.6%,
O=C(CCCn1c(=O)c2cccn2c2cccnc21)NCc1ccc(F)cc1,,inactive
COc1ccc(-c2nc(Cn3c(SCc4ccc(C)cc4)nc4cccnc43)c(C)o2)cc1OC,inactive: -11.2%,
COc1cccc2c1cc1c(=O)n(CC(=O)N3CCN(c4cc(Cl)ccc4C)CC3)nc(C)n12,inactive: -10.7%,
COc1ccc(-c2nnc(SCC(=O)Nc3ccc(Cl)cc3)s2)cc1,inactive: -7.36%,
CCOC(=O)c1ccc(NC(=O)C2=C(C)Nc3nc(SCc4ccc(Cl)cc4)nn3C2c2ccc(OC)cc2)cc1 (centres undefined),inactive: 4.13%,
COc1ccc(C(=O)CC2(O)C(=O)N(Cc3ccccc3Cl)c3ccccc32)cc1 (centres undefined),,inactive
CCOc1ccc(-n2c(C)nc3cc(C(=O)NCCC4=CCCCC4)ccc32)cc1,inactive: 4.63%,
COc1ccc(CNC(=O)CCC(=O)N2CCSc3ccccc32)cc1,,inactive
CCCC1OC2C[C@@H]3[C@H]4CCC5=CC(=O)C=C[C@]5(C)[C@H]4C(O)C[C@]3(C)[C@]2(C(=O)CO)O1 (some centres undefined),inactive: 4.74%,
CCN1CCN(c2ccc(NS(=O)(=O)c3c(C)nc4sccn4c3=O)cc2Cl)CC1,,inactive
Cc1ccc(C(C)(C)C)c(OCC(=O)NCCc2nc3ccccc3[nH]2)c1,inactive: 0.478%,
CN(Cc1ccccc1)S(=O)(=O)c1ccc(F)c(C(=O)Nc2cccc(Cl)c2Cl)c1,inactive: -3.1%,
COc1ccc(-c2nc3sc(CCNC(=O)c4cc(Cl)ccc4OC)c(C)n3n2)cc1,inactive: 43.1%,
Cc1ccccc1NS(=O)(=O)c1ccc(Br)s1,inactive: 9.54%,
Cc1c(/C=C(\C#N)C(=O)Nc2cccc(Cl)c2)c2ccccc2n1Cc1ccccc1Cl,inactive: -2.43%,
CCOc1ccc(C2=NC(c3cccs3)=Nc3ccc(C(C)C)cc3N2)cc1,inactive: -5.2%,
CCOc1ccccc1-n1nnc(-c2nc(-c3ccccc3)no2)c1N,,inactive
Cc1cccc(CC2C(=O)Nc3ccccc32)c1 (centres undefined),inactive: -13.3%,
CCN(CC)c1cc2c(cc1F)c(=O)c(S(=O)(=O)c1cc(C)ccc1C)cn2Cc1ccccc1,inactive: -0.204%,
COc1ccccc1N1CCN(c2ncnc3c2cnn3C)CC1,inactive: -5.88%,
CCOc1ccc(C2c3cc(OCC)c(OCC)cc3CC(=O)N2c2ccc(C(=O)O)cc2)cc1OCC (centres undefined),inactive: -9.37%,
CCc1ccc(C(=O)COC(=O)C(Cc2c[nH]c3ccccc23)NC(=O)c2ccc(Br)cc2)cc1 (centres undefined),inactive: 2.19%,

SMILES,"activity change, negative = inhibition",outcome
COc1ccc(S(=O)(=O)N(CCc2ccccc2)CC(=O)Nc2cccc(OC)c2)cc1,inactive: -0.847%,
CCOC(=O)c1cccc(NC(=O)C2CCN(S(=O)(=O)c3ccc4c(c3)oc(=O)n4C)CC2)c1,,inactive
CCOc1ccc(C2CC(=O)c3c([nH]c(C(=O)OCc4ccccc4)c3C)C2)cc1 (centres undefined),inactive: -6.17%,
Cc1nc2ccc(S(=O)(=O)N(C)CC(=O)Nc3ccc(Br)c(C)c3)cc2s1,inactive: 9.32%,
CCc1cccc(C)c1NC(=O)Cn1ccn(-c2ccc(F)cc2)c(=O)c1=O,inactive: 6.96%,
COc1ccc(CCN2C(=O)c3oc4ccc(F)cc4c(=O)c3C2c2ccc(C(C)(C)C)cc2)cc1 (centres undefined),inactive: 11.9%,
COc1ccc(S(=O)(=O)N2CCC(n3c(C(F)(F)F)nc4cccnc43)CC2)cc1OC,inactive: -16.6%,
Cc1ccc(Cn2nnc(C(=O)Nc3ccc(F)c(F)c3)c2N)cc1,,inactive
COc1ccc(C(=O)CN2C(=O)N(c3ccc(C(C)=O)cc3)S(=O)(=O)c3ccccc32)cc1,inactive: -17.3%,
CCOC(=O)N1CCc2c(sc3c2c(=O)n(CCc2ccccc2)c(=O)n3Cc2ccc(F)cc2)C1,,inactive
O=C(CSc1nc(-c2ccccc2)no1)N1CCCCC1,inactive: -4.6%,
Cc1ccccc1-c1nn2c(=O)cc(CN3CCN(C(=O)c4ccc(C(C)(C)C)cc4)CC3)nc2s1,,inactive
O=C1CC(c2ccccc2)Cc2[nH]c(=O)c(C(=O)Nc3cccc(Cl)c3)cc21 (centres undefined),inactive: -23%,
COC(=O)c1ccc(NC(=O)CN2CCN(c3ccc(Cl)cc3)CC2)cc1,inactive: 2.84%,
COc1ccc(NC(=O)c2cn(-c3ccccc3)nc2-c2ccc(C)cc2)cc1,inactive: 2.79%,
Cc1ccc(N(C)C(=O)C2CCN(S(=O)(=O)c3ccc4c(c3)CCCN4C(=O)C3CCC3)CC2)cc1,inactive: 2.14%,
CCOc1ccccc1-n1cc2c(c1-c1ccc(OC)cc1)c(=O)n(C)c(=O)n2C,inactive: 16.8%,
COc1ccc(NC(=O)c2ccc3c(c2)CCN3S(=O)(=O)c2ccc(C)cc2)cc1Cl,inactive: 8.18%,
CCOC(=O)c1cccc(NC(=O)C(C)n2c(C)c3cnn(-c4ccccc4)c(=O)c3c2C)c1 (centres undefined),,inactive
CCCOC(=O)CSc1nnc2ccc3ccccc3n12,inactive: -11.8%,
CN1CCCC(n2nc(Cc3ccc(Cl)cc3)c3ccccc3c2=O)CC1 (centres undefined),inactive: 1.1%,
Cc1c(Cl)cccc1NC(=O)CN1C(=O)COc2ccc(S(=O)(=O)Nc3ccccc3)cc21,inactive: 43.2%,
CCCSCCCNC(=O)c1ccc(Cn2c(=O)c3cccn3c3cccnc32)cc1,,inactive
COc1ccc(Cl)cc1NC(=O)CCc1c(C)nc2c(c1C)c(=O)n(C)c(=O)n2C,,inactive

SMILES,"activity change, negative = inhibition",outcome
COc1cc(NC(=O)CSc2nc3nc(C)c(Cc4ccc(C)cc4)c(C)n3n2)cc(OC)c1,inactive: -12.9%,
CC(C)NS(=O)(=O)c1ccc2nc(NC(=O)c3cncc(Br)c3)sc2c1,inactive: 1.85%,
Cc1ccc(NC(=O)CN(C)S(=O)(=O)c2ccc3nc(C)sc3c2)c(C)c1,,inactive
CCc1ccccc1NC(=O)Cn1nc(C(F)(F)F)c2c1CCCC2,,inactive
Clc1cccc(CNc2cc(-c3ccccc3)nc3nncn23)c1,inactive: -4.26%,
Cc1cc(C)c(NC(=O)CCn2c(=O)c3cccn3c3cccnc32)c(C)c1,,inactive
OCCN1CCN(C(c2ccccc2Cl)c2sc3nc(-c4ccco4)nn3c2O)CC1 (centres undefined),inactive: -3.06%,
Cc1cccc(N2C(=O)CS(=O)(=O)C23C(=O)N(Cc2c(F)cccc2Cl)c2ccccc23)c1 (centres undefined),inactive: 4.66%,
Cc1cccc(N2CCn3c2nc2c3c(=O)n(CCc3ccccc3)c(=O)n2C)c1,inactive: 0.642%,
CC(C)N1C(=O)C(O)(c2c[nH]c3ccccc23)c2ccccc21 (centres undefined),inactive: -23.3%,
N#CC1=C(N)N(c2cccc(Cl)c2)C2=C(C(=O)CCC2)C1c1cc(CN2CCOCC2)cs1 (centres undefined),,inactive
COc1cccc(-c2cn3c(n2)sc2cc(C(=O)NCCc4ccc(OC)c(OC)c4)ccc23)c1,inactive: -3.2%,
CCCS(=O)(=O)N1CC(=O)N(c2cc(C)ccc2C)C(C)(C(=O)NC2CCCCCC2)C1 (centres undefined),inactive: -4.96%,
Cc1ccc2onc(CNC(=O)NCc3cccc(Cl)c3)c2c1,inactive: 4.87%,
CCOc1ccc(OCC)c(NC(=O)CC(C)n2nc(C)cc2C)c1 (centres undefined),inactive: -1.24%,
O=C(O)CCCNc1cc(N2CCN(C3CCCCC3)CC2)c2noc3c2c1C(=O)c1ccccc1-3,inactive: 0.49%,
CCOc1ccc(-c2cc(C(=O)Nc3ccc(NC(C)=O)cc3)no2)cc1,inactive: -7.02%,
Cc1cc(N)c(-n2cc3c(c2-c2ccc(Br)cc2)c(=O)n(C)c(=O)n3C)cc1C,inactive: 185%,
Cc1cc(C)cc(Oc2coc3cc(OCC(=O)NC4CCCCC4)ccc3c2=O)c1,inactive: -6.36%,
CCOc1ccc(-n2nc(CO)c(C(=O)NCCCc3ccccc3)n2)cc1,inactive: -4.76%,
CC(=O)Nc1ccc(S(=O)(=O)N2CCC(c3nnnn3-c3ccccc3)CC2)cc1,inactive: 34.8%,
Cc1ccc(/C=N/NC(=O)c2ccccc2Oc2ccccc2)o1,inactive: 5.47%,
